Here are results for 84 variants from the RNAGym collection of RNA variant scans (doi:10.1073/pnas.2313332121).

The chains are these.
B1: TPR 5TU (parent)
chain: GGAUCUUCUCGAUCUAACAAAAAAGACAAAUCUGCCACAAAGCUUGAGAGCAUCUUCGGAUGCAGAGGCGGCAGCCUUCGGUGGCGCGAUAGCGCCAACGUUCUCAACUAUGACACGCAAAACGCGUGCUCCGUUGAAUGGAGUUUAUCAUG

This sample is rich in variants without activity.

Variants of B1 are the subject of the data set. In words: polymerase ribozyme fitness, log enrichment relative to wild type (log ratio); higher = more active; in vitro selection for triplet polymerase activity. The method in brief:
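Each subunit of a heterodimeric triplet polymerase ribozyme was represented by a PCR-built, transcribed mutant library that underwent triplicate single-round in vitro selection with frozen incubation at −7 °C. Extended constructs were recovered by gel excision, streptavidin-bead capture and RT-PCR, and Illumina sequencing of input and output libraries kept genotypes with ≥10 input reads and ≥1 read per output. Fitness is the logarithm of genotype enrichment relative to wild-type enrichment, from inverse-variance-weighted replicate averages, with a logarithm base of 2.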
As for A47C C75G U77A G88A A106U, the “polymerase ribozyme fitness (log ratio)” value was not above -4.2. The result for A47C C95U A107G C118U C125U G140C U145G U148G reads not above -4.2; that for A47C A60G G83C G140U, not above -4.2. For G46A C54G G86U the value was not above -4.2; for A47C U56G A91U C96G C118U A122C C131U U139C U148A, not above -4.2; for A47C C57A G84U A89C, -1.5.

With U45G G48A C87U C93A C118U, the “polymerase ribozyme fitness (log ratio)” value is not above -4.2. For U45A U53A G83A the value was not above -4.2. For U45A U109C the value was -3.44. The result for A47C G65C U77A U78G C85U reads not above -4.2; that for A47C C79U G83C, not above -4.2; that for G46C A52G C63A G71A A110G A113U, not above -4.2. With U45G C79A C87U G92A, the “polymerase ribozyme fitness (log ratio)” value is not above -4.2. Take G46C G74C C87A: the “polymerase ribozyme fitness (log ratio)” value is not above -4.2. Take G46A G83U C103A: the “polymerase ribozyme fitness (log ratio)” value was not above -4.2. The result for U45A U61G U82C G83C A97C G100A C103A reads not above -4.2; that for G46A U55A G67A C85U A91U C105A A106G A115G C116U U135G U148A, not above -4.2.

G46C A110U U135A: the “polymerase ribozyme fitness (log ratio)” value was not above -4.2. The result for U45A U77A G92A A110U reads not above -4.2. For A47C A64G U82C A91G C99U U135G the value was not above -4.2; for G46A A97U U109G A121G U135C, not above -4.2; for G46A C69A, -3.61. For U45A G68U G92U C149G the value was not above -4.2; for G46U G84A C103U, not above -4.2. A47C G84C C93A A106U G136C U144G: the “polymerase ribozyme fitness (log ratio)” value is not above -4.2.

Regarding A47G A52G C87U A98G, the “polymerase ribozyme fitness (log ratio)” value is -1.52. For G46U G48C C79G C93G U144A the value was not above -4.2; for G46C C54U G94A C99A A142U U151C, not above -4.2. For U45G G74C U111A the value was not above -4.2; for G46A G83C U127C, not above -4.2; for G46U A64U C76A C87A G126U, not above -4.2. Consider A47C U55A C57G C79A G81A C87A C105U C149G, for which the “polymerase ribozyme fitness (log ratio)” value is not above -4.2. For G46A G143C the value was -3.81. For G46A C93A C95A A107G U146A U148A, the “polymerase ribozyme fitness (log ratio)” value is not above -4.2.

As to G46A A49C U61G G81U C87U, the “polymerase ribozyme fitness (log ratio)” value is not above -4.2. For U45G U55A C76U C85G A97C C103U A119C G140A, the “polymerase ribozyme fitness (log ratio)” value is not above -4.2. The result for G46A A47C C63G A91C G94C G126A reads not above -4.2; that for G46A U82C C95U C125G, -1.73; that for G46C C72A C87A U127C G143A, not above -4.2. For G46A A47G G48A C76U G88U A98G the value was not above -4.2; for A47C C57A G84A U101C, -0.765; for G46A C85A A91C, not above -4.2. For G46C C87A G100C A106C C116A U139C the value was not above -4.2.

For A47C G59C A73U C93U G100C, the “polymerase ribozyme fitness (log ratio)” value was not above -4.2. On to G46C C76U, for which the “polymerase ribozyme fitness (log ratio)” value was not above -4.2. Take U45G G94A A137G: the “polymerase ribozyme fitness (log ratio)” value is -2.23. The result for A47C G48U C76G C96U A113C reads not above -4.2. The result for A47C G48C C93U C149U reads not above -4.2.

With A47C C54A C72A C85U C96U C118U G140C C149U, the “polymerase ribozyme fitness (log ratio)” value is not above -4.2. The result for A47C U102G A115U A142G U148A reads not above -4.2; that for G46A C96U U101A, -2.59; that for U45C C132G, not above -4.2. For U45G C103A A150U the value was not above -4.2; for U45C G46A U61G G62C C76A, not above -4.2; for G46U A60U G92C U139G, not above -4.2. For A47C C85U C118U U130A, the “polymerase ribozyme fitness (log ratio)” value is -3.62. For G46C C75G G88A C114U the value was not above -4.2; for G46A C63A G88U G117C, not above -4.2; for U45A G86A A142G, not above -4.2. The result for A47C U61A G62U A64G C85A C123U reads not above -4.2; that for U45G C57G C85U U134G C149A, not above -4.2. The result for G46A C54G C79G reads not above -4.2; that for A47C U53A C95U G136C, -3.62. For the variant U45G U53A U56C G84A C125U A137G G140U C149A, the “polymerase ribozyme fitness (log ratio)” value was not above -4.2. The result for U45A U148G C149G reads not above -4.2; that for U45A G68C C85U A97U G140A A142C, not above -4.2. For G46A G80C G92U C103U the value was not above -4.2; for G46U U82C C95U, -0.628; for G46U U61A G92U C96A A137G, not above -4.2. The result for U45G C93A C116U reads -2.88.

For the variant G46C G136A, the “polymerase ribozyme fitness (log ratio)” value is -0.148. The result for U45G C75G C87A A120C G141C reads not above -4.2.

U45A U56A G88A U101A C149U: the “polymerase ribozyme fitness (log ratio)” value was not above -4.2.

As to A47C U53A U55C C93A, the “polymerase ribozyme fitness (log ratio)” value was not above -4.2. As for A47C A49G G80C G92U, the “polymerase ribozyme fitness (log ratio)” value was not above -4.2. Consider G46C G59C C85U G88A A119U, for which the “polymerase ribozyme fitness (log ratio)” value was not above -4.2. On to A47C G59A G83A C85A C108G G141U, for which the “polymerase ribozyme fitness (log ratio)” value was not above -4.2. The result for G46U U56G A66C G83U C99G A106G reads not above -4.2; that for G46U U77G C93G A106G U130A U146G, not above -4.2. Take G46U G83U A119U C123A U145C: the “polymerase ribozyme fitness (log ratio)” value was -3.34. For G46A G86C C118U A122U the value was -3.45. The result for A47C U56C G68A G74C reads not above -4.2; that for G46A G84U C99A A110C C114U U146C, not above -4.2; that for G46C G58C G83C C125A, -4.17.
